Results from paper PMC10611586.
No constants are given. Whether binding was seen depends on the method and setting. Some entries that bind do so weakly or less than the wild type. For part of these data: Sequences can lack the tags named with a protein.

B1: endogenous USP36 (enzyme, UniProt Q9P275 1-1123)
chain: MPIVDKLKEALKPGRKDSADDGELGKLLASSAKKVLLQKIEFEPASKSFSYQLEALKSKYVLLNPKTEGASRHKSGDDPPARRQGSEHTYESCGDGVPAPQKVLFPTERLSLRWERVFRVGAGLHNLGNTCFLNATIQCLTYTPPLANYLLSKEHARSCHQGSFCMLCVMQNHIVQAFANSGNAIKPVSFIRDLKKIARHFRFGNQEDAHEFLRYTIDAMQKACLNGCAKLDRQTQATTLVHQIFGGYLRSRVKCSVCKSVSDTYDPYLDVALEIRQAANIVRALELFVKADVLSGENAYMCAKCKKKVPASKRFTIHRTSNVLTLSLKRFANFSGGKITKDVGYPEFLNIRPYMSQNNGDPVMYGLYAVLVHSGYSCHAGHYYCYVKASNGQWYQMNDSLVHSSNVKVVLNQQAYVLFYLRIPGSKKSPEGLISRTGSSSLPGRPSVIPDHSKKNIGNGIISSPLTGKRQDSGTMKKPHTTEEIGVPISRNGSTLGLKSQNGCIPPKLPSGSPSPKLSQTPTHMPTILDDPGKKVKKPAPPQHFSPRTAQGLPGTSNSNSSRSGSQRQGSWDSRDVVLSTSPKLLATATANGHGLKGNDESAGLDRRGSSSSSPEHSASSDSTKAPQTPRSGAAHLCDSQETNCSTAGHSKTPPSGADSKTVKLKSPVLSNTTTEPASTMSPPPAKKLALSAKKASTLWRATGNDLRPPPPSPSSDLTHPMKTSHPVVASTWPVHRARAVSPAPQSSSRLQPPFSPHPTLLSSTPKPPGTSEPRSCSSISTALPQVNEDLVSLPHQLPEASEPPQSPSEKRKKTFVGEPQRLGSETRLPQHIREATAAPHGKRKRKKKKRPEDTAASALQEGQTQRQPGSPMYRREGQAQLPAVRRQEDGTQPQVNGQQVGCVTDGHHASSRKRRRKGAEGLGEEGGLHQDPLRHSCSPMGDGDPEAMEESPRKKKKKKRKQETQRAVEEDGHLKCPRSAKPQDAVVPESSSCAPSANGWCPGDRMGLSQAPPVSWNGERESDVVQELLKYSSDKAYGRKVLTWDGKMSAVSQDAIEDSRQARTETVVDDWDEEFDRGKEKKIKKFKREKRRNFNAFQKLQTRRNFWSVTHPAKAASLSYRR
B2: Flag–USP36, full length (enzyme, UniProt Q9P275 1-1123)
chain: B1 chain
B3: USP42^70–446 (catalytic domain) (enzyme, UniProt Q9H9J4 70-446)
chain: DKSKPSPQKDQALGDGIAPPQKVLFPSEKICLKWQQTHRVGAGLQNLGNTCFANAALQCLTYTPPLANYMLSHEHSKTCHAEGFCMMCTMQAHITQALSNPGDVIKPMFVINEMRRIARHFRFGNQEDAHEFLQYTVDAMQKACLNGSNKLDRHTQATTLVCQIFGGYLRSRVKCLNCKGVSDTFDPYLDITLEIKAAQSVNKALEQFVKPEQLDGENSYKCSKCKKMVPASKRFTIHRSSNVLTLSLKRFANFTGGKIAKDVKYPEYLDIRPYMSQPNGEPIVYVLYAVLVHTGFNCHAGHYFCYIKASNGLWYQMNDSIVSTSDIRSVLSQQAYVLFYIRSHDVKNGGELTHPTHSPGQSSPRPVISQRVVTNKQ
B4: USP2^258–605 (catalytic domain) (enzyme, UniProt O75604 258-605)
chain: MNSKSAQGLAGLRNLGNTCFMNSILQCLSNTRELRDYCLQRLYMRDLHHGSNAHTALVEEFAKLIQTIWTSSPNDVVSPSEFKTQIQRYAPRFVGYNQQDAQEFLRFLLDGLHNEVNRVTLRPKSNPENLDHLPDDEKGRQMWRKYLEREDSRIGDLFVGQLKSSLTCTDCGYCSTVFDPFWDLSLPIAKRGYPEVTLMDCMRLFTKEDVLDGDEKPTCCRCRGRKRCIKKFSIQRFPKILVLHLKRFSESRIRTSKLTTFVNFPLRDLDLREFASENTNHAVYNLYAVSNHSGTTMGGHYTAYCRSPGTGEWHTFNDSSVTPMSSSQVRTSDAYLLFYELASPPSRM
B5: Flag–USP48, full length (enzyme, UniProt Q86UV5 1-1035)
chain: MAPRLQLEKAAWRWAETVRPEEVSQEHIETAYRIWLEPCIRGVCRRNCKGNPNCLVGIGEHIWLGEIDENSFHNIDDPNCERRKKNSFVGLTNLGATCYVNTFLQVWFLNLELRQALYLCPSTCSDYMLGDGIQEEKDYEPQTICEHLQYLFALLQNSNRRYIDPSGFVKALGLDTGQQQDAQEFSKLFMSLLEDTLSKQKNPDVRNIVQQQFCGEYAYVTVCNQCGRESKLLSKFYELELNIQGHKQLTDCISEFLKEEKLEGDNRYFCENCQSKQNATRKIRLLSLPCTLNLQLMRFVFDRQTGHKKKLNTYIGFSEILDMEPYVEHKGGSYVYELSAVLIHRGVSAYSGHYIAHVKDPQSGEWYKFNDEDIEKMEGKKLQLGIEEDLAEPSKSQTRKPKCGKGTHCSRNAYMLVYRLQTQEKPNTTVQVPAFLQELVDRDNSKFEEWCIEMAEMRKQSVDKGKAKHEEVKELYQRLPAGAEPYEFVSLEWLQKWLDESTPTKPIDNHACLCSHDKLHPDKISIMKRISEYAADIFYSRYGGGPRLTVKALCKECVVERCRILRLKNQLNEDYKTVNNLLKAAVKGSDGFWVGKSSLRSWRQLALEQLDEQDGDAEQSNGKMNGSTLNKDESKEERKEEEELNFNEDILCPHGELCISENERRLVSKEAWSKLQQYFPKAPEFPSYKECCSQCKILEREGEENEALHKMIANEQKTSLPNLFQDKNRPCLSNWPEDTDVLYIVSQFFVEEWRKFVRKPTRCSPVSSVGNSALLCPHGGLMFTFASMTKEDSKLIALIWPSEWQMIQKLFVVDHVIKITRIEVGDVNPSETQYISEPKLCPECREGLLCQQQRDLREYTQATIYVHKVVDNKKVMKDSAPELNVSSSETEEDKEEAKPDGEKDPDFNQSNGGTKRQKISHQNYIAYQKQVIRRSMRHRKVRGEKALLVSANQTLKELKIQIMHAFSVAPFDQNLSIDGKILSDDCATLGTLGVIPESVILLKADEPIADYAAMDDVMQVCMPEEGFKGTGLLGH
B6: Flag–USP42, full length (enzyme, UniProt Q9H9J4 1-1324)
chain: MTIVDKASESSDPSAYQNQPGSSEAVSPGDMDAGSASWGAVSSLNDVSNHTLSLGPVPGAVVYSSSSVPDKSKPSPQKDQALGDGIAPPQKVLFPSEKICLKWQQTHRVGAGLQNLGNTCFANAALQCLTYTPPLANYMLSHEHSKTCHAEGFCMMCTMQAHITQALSNPGDVIKPMFVINEMRRIARHFRFGNQEDAHEFLQYTVDAMQKACLNGSNKLDRHTQATTLVCQIFGGYLRSRVKCLNCKGVSDTFDPYLDITLEIKAAQSVNKALEQFVKPEQLDGENSYKCSKCKKMVPASKRFTIHRSSNVLTLSLKRFANFTGGKIAKDVKYPEYLDIRPYMSQPNGEPIVYVLYAVLVHTGFNCHAGHYFCYIKASNGLWYQMNDSIVSTSDIRSVLSQQAYVLFYIRSHDVKNGGELTHPTHSPGQSSPRPVISQRVVTNKQAAPGFIGPQLPSHMIKNPPHLNGTGPLKDTPSSSMSSPNGNSSVNRASPVNASASVQNWSVNRSSVIPEHPKKQKITISIHNKLPVRQCQSQPNLHSNSLENPTKPVPSSTITNSAVQSTSNASTMSVSSKVTKPIPRSESCSQPVMNGKSKLNSSVLVPYGAESSEDSDEESKGLGKENGIGTIVSSHSPGQDAEDEEATPHELQEPMTLNGANSADSDSDPKENGLAPDGASCQGQPALHSENPFAKANGLPGKLMPAPLLSLPEDKILETFRLSNKLKGSTDEMSAPGAERGPPEDRDAEPQPGSPAAESLEEPDAAAGLSSTKKAPPPRDPGTPATKEGAWEAMAVAPEEPPPSAGEDIVGDTAPPDLCDPGSLTGDASPLSQDAKGMIAEGPRDSALAEAPEGLSPAPPARSEEPCEQPLLVHPSGDHARDAQDPSQSLGAPEAAERPPAPVLDMAPAGHPEGDAEPSPGERVEDAAAPKAPGPSPAKEKIGSLRKVDRGHYRSRRERSSSGEPARESRSKTEGHRHRRRRTCPRERDRQDRHAPEHHPGHGDRLSPGERRSLGRCSHHHSRHRSGVELDWVRHHYTEGERGWGREKFYPDRPRWDRCRYYHDRYALYAARDWKPFHGGREHERAGLHERPHKDHNRGRRGCEPARERERHRPSSPRAGAPHALAPHPDRFSHDRTALVAGDNCNLSDRFHEHENGKSRKRRHDSVENSDSHVEKKARRSEQKDPLEEPKAKKHKKSKKKKKSKDKHRDRDSRHQQDSDLSAACSDADLHRHKKKKKKKKRHSRKSEDFVKDSELHLPRVTSLETVAQFRRAQGGFPLSGGPPLEGVGPFREKTKHLRMESRDDRCRLFEYGQGKRRYLELGR

Legend:
[1] = molecular target: HA–Fubi-VS (C57L, from GST–3C-GS-HA–Fubi^1–73) (human) (UniProt P62861); assay: activity-based probe labelling (covalent conjugate), western blot; HEK293 lysate (endogenous or overexpressed Flag-tagged full-length USP) at 2 mg/ml incubated with 10 µM probe for 1 h at 37 °C; SDS-PAGE and western blotting; only the target purified
[2] = molecular target: HA–Fubi-VS (C57L, from GST–3C-GS-HA–Fubi^1–73) (human) (UniProt P62861); assay: activity-based probe labelling (covalent conjugate), western blot; lysates of HEK293 cells overexpressing Flag-tagged full-length USP proteins; milder labeling conditions (not told further); only the target purified
Fubi-PA L72R (human) = Fubi-PA L72R (human) (UniProt P62861); assay: activity-based probe labelling (covalent conjugate), SDS-PAGE; purified protease 2.5 µM and probe 10 µM, 1 h at 37 °C; 20 mM Tris pH 8.0, 300 mM NaCl, 2 mM DTT, 5% glycerol; SDS-PAGE and Coomassie staining; both purified
[3] = molecular target: Fubi-PA V40R P47Q (human) (UniProt P62861); assay: as above

Binder | binding [1] | binding [2] | binding (Fubi-PA L72R (human)) | binding [3]
B1 | binds |  |  | 
B2 | binds | binds |  | 
B3 |  |  | binds weakly | binds weakly
B4 |  |  | no binding (tested: 10 µM probe) | no binding (tested: 10 µM probe)
B5 | no binding (tested: 10 µM probe) |  |  | 
B6 | no binding (tested: 10 µM probe) |  |  | 
